Laboratory results taken from PubChem BioAssay AID1030 (National Center for Advancing Translational Sciences (NCATS), 2008).
Values joined by “and” are separate entries in the source; they are usually repeats but may differ in a detail not shown here. Equal entries are not always repeated. Screen size: about 220,000 compounds; about 16,000 (7.3%) were called active. Inconclusive results, whose numbers are uncertain, are shown with a selection of clear calls. Calls come from the whole dose curve; as a rule, active = well fitted inhibition curve with a large enough effect (not every such curve was filed as active); inconclusive = small, poorly fitted or top-dose-only effect, or another doubt; inactive = no such curve, though single readings can be large or run the other way. Potencies of inconclusive entries are left out as doubtful fits. Some structures have more than one record in an assay (separate samples or runs), and their calls can disagree.

Target: Aldehyde dehydrogenase 1A1 (Homo sapiens) (UniProt P00352)
Chain of UniProt P00352 (P00352 whole entry, looked up): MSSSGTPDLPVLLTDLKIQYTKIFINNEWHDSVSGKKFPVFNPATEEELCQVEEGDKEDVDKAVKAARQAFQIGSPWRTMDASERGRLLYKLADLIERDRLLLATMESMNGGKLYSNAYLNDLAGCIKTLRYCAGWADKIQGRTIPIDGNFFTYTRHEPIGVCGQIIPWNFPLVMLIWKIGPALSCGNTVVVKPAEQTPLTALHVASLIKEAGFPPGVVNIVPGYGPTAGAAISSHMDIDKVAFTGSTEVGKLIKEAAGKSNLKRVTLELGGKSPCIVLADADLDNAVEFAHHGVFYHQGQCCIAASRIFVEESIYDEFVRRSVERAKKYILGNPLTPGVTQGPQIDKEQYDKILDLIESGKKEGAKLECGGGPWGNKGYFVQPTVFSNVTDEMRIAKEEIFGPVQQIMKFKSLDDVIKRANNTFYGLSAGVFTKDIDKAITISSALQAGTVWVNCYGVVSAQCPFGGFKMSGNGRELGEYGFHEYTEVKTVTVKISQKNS
Test: qHTS Assay for Inhibitors of Aldehyde Dehydrogenase 1 (ALDH1A1)
Settings: Purified ALDH1A1, NADH fluorescence, propionaldehyde substrate; series mostly up to 75.3 µM
Potency is the fitted concentration of half-maximal effect; tags give direction and shape of the fitted curve.

Compound	Potency
COC(=O)c1c(NC(=O)COC(=O)c2ccccc2O)sc2c1CCCCC2	inconclusive [inhibitor, single point]
Cc1cc(SCC(=O)N2CCCC2)nc2ccccc12	inactive
O=C(NNC(=O)c1cnccc1C(F)(F)F)c1cccc(Cl)c1	inactive
Cc1oc(-c2ccc(Cl)cc2)cc1-c1nn2c(-c3ccoc3C)nnc2s1	active: 20 µM
Cc1ccc(-c2csc(NC(=O)c3cccc([N+](=O)[O-])c3)n2)cc1	inactive
O=C(COC(=O)CNC(=O)c1sc2ccccc2c1Cl)Nc1cc(Cl)cc(Cl)c1	inconclusive [inhibitor, single point]
C=C(C)CSC1=C(C#N)C(c2ccccc2)CC(=O)N1 (configuration not stated)	active: 6.31 µM
O=C(CSc1oc(-c2cccs2)nc1S(=O)(=O)c1ccc(F)cc1)NCC1CCCO1 (configuration not stated)	inconclusive [inhibitor, single point]
Cc1cc(C(=O)CSc2nn(-c3ccccc3)c(=S)s2)c(C)n1Cc1ccco1	inconclusive [inhibitor, partial curve]
Cn1c(=O)c2c(nc(N3CCN(c4ccccn4)CC3)n2Cc2ccccc2Cl)n(C)c1=O	active: 1.12 µM
CC1(C)CC(=O)C(C(C2=C(O)CC(C)(C)CC2=O)c2cccs2)C(=O)C1 (configuration not stated)	inactive
Cc1ccc(S(=O)(=O)c2nc(C(C)(C)C)oc2N2CCOCC2)cc1	active: 10 µM
Cc1cccc(NC(=O)/C(C#N)=C\c2cccnc2)c1	inactive
O=C(NCCc1ccccc1)C1CCN(Cc2ccccc2F)CC1	inconclusive [inhibitor, single point]
O=C(CCN1CCC(c2ccc(Cl)s2)=N1)c1ccc(Cl)s1	active: 3.16 µM
COc1ccc(-c2ccnc3cc(C(=O)O)nn23)cc1	inconclusive [inhibitor, partial curve]
Cc1nc(Nc2cccc(C(C)O)c2)c2nnn(Cc3ccccc3F)c2n1 (configuration not stated)	active: 4.47 µM
COc1ccc2c(c1)S/C(=C\C(=O)c1ccncc1)N2C	active: 14.1 µM
COc1ccc(NC(=O)c2c(C(F)(F)F)nn(C)c2SCc2ccccc2Cl)cc1	inconclusive [inhibitor, single point]
O=CNCCCc1nc2ccccc2n1Cc1ccccc1	active: 22.4 µM
COc1ccc2nc(C)c3c(c2c1)OC(C)C3 (configuration not stated)	inconclusive [inhibitor, single point]
CCCCN1CN(Cc2ccccc2)CNC1=S	inactive
CC(C)c1nnc(NC(=O)C2c3ccccc3Oc3ccccc32)s1	inconclusive [inhibitor, single point]
CSC(=[SH+])N=N/C(=C1/C=CC=CN1)c1ccccn1.[Cu][Br]	active: 0.631 µM
COc1ccc(C(=O)NCC(=O)OCc2ccc(F)cc2)cc1	inactive
COC(=O)c1sc(NC(=O)C(C)C)c(C(=O)OC)c1C	inconclusive [inhibitor, full curve]

Compound	Potency
S=C(NCCc1ccccc1)N1CCN(Cc2ccc(Cl)c(Cl)c2)CC1	inactive
O=C(O)Cn1nnnc1SCC(=O)Nc1ccc(F)cc1F	inactive
CCN(Cc1ccncc1)C(=O)CC1C(=O)NCCN1Cc1ccc(F)c(F)c1 (configuration not stated)	inconclusive [inhibitor, partial curve, poor fit]
Cc1ccc(S(=O)(=O)N2CCC(C(=O)NCc3ccncc3)CC2)cc1	inactive
O=C(O)CSc1nnc(COc2cccc3cccnc23)n1-c1cccc(C(F)(F)F)c1	inactive
COc1ccc2nc(C)cc(SCC(=O)NNC(=O)COc3cccc4ccccc34)c2c1	inconclusive [inhibitor, single point]
COc1cc(/C=C/C(=O)NCC(=O)N2CCC(N(C)CCN3CCOCC3)CC2)ccc1OC(C)C	inconclusive [inhibitor, single point]
C=CCn1cc(C(=O)N2CCN(C)CC2)c(=O)c2cc(S(=O)(=O)N3CCCC3)ccc21	inconclusive [inhibitor, single point]
O=C(CSc1nc2c(c(=O)n1-c1ccc(F)cc1)SCC2)NCC1CCCO1 (configuration not stated)	inactive
CNc1nc(-c2ccc(OC)cc2)c(-c2ccc(OC)cc2)s1	inconclusive [inhibitor, single point]
O=C(Oc1c(CN2CCOCC2)cc(Cl)c2cccnc12)c1cccs1	inconclusive [inhibitor, partial curve]
Clc1cccc(Nc2c3c(nc4ncnn24)CCC3)c1	inconclusive [inhibitor, single point]
COc1ccc(CCn2c(=N)c(C(=O)NCc3ccco3)cc3c(=O)n4cccc(C)c4nc32)cc1	inconclusive [inhibitor, single point]
NS(=O)(=O)c1cnccc1Nc1ccc(Cl)c(Cl)c1	inactive
Cc1ccc(C2C(C#N)=C(N)Oc3n[nH]c(-c4ccccc4)c32)o1 (configuration not stated)	inconclusive [inhibitor, single point]
COC(=O)c1ccccc1NC(=O)NCC1CCCO1 (configuration not stated)	inconclusive [inhibitor, partial curve]
CCOc1ccccc1-n1c(SCC(=O)NC(C)CC)nnc1-c1ccoc1C (configuration not stated)	inactive
COc1ccc(S(=O)(=O)N(C)CC(=O)NCCC2=CCCCC2)cc1OC	inconclusive [inhibitor, partial curve]
O=C1NCC(COc2ccc(Cl)cc2)O1 (configuration not stated)	inactive
Cc1ccc(NC(=O)C(c2ccc(Cl)cc2Cl)N2CCCC2)cc1 (configuration not stated)	inactive
CCOC(=O)c1cnc(SCC(=O)Nc2cc(OC)ccc2OC)nc1N	inconclusive [inhibitor, partial curve]
CCOC(=O)C1(CCc2ccccc2)CCN(C(=O)c2cnc(C)cn2)CC1	inconclusive [inhibitor, single point]
Cc1c(Cl)c([N+](=O)[O-])nn1CCCC(=O)O	inconclusive [inhibitor, single point]
CCOC(=O)CSc1ccc2nnc(-c3cccnc3)n2n1	inconclusive [inhibitor, single point]
COc1cc(NC(=O)c2ccc(Cl)cc2)c(OC)cc1NC(=O)CN1CCCCC1	inconclusive [inhibitor, partial curve]
COc1ccccc1-c1nnc(NC(=O)c2ccccc2F)o1	inconclusive [inhibitor, single point]

Compound	Potency
Cc1ccc(CC(=O)Nc2ccc(F)c([N+](=O)[O-])c2)cc1C	inconclusive [inhibitor, single point]
CCN(CC)C(=O)c1[nH]cnc1C(=O)N[C@@H](CC(C)C)C(=O)OCc1ccccc1	inactive
NC(=O)/C=C\C(=O)Nc1cccc(C(F)(F)F)c1	active: 2.82 µM
CCN(CC)S(=O)(=O)c1ccc2oc(SCC3CN=C(c4ccc(OC)cc4)S3)nc2c1 (configuration not stated)	active: 22.4 µM
Cc1cc(C)c(-n2[nH]nnc2=S)c(C)c1	active: 22.4 µM
COc1ccc(OCCNC(=O)C(c2ccccc2)c2ccccc2)cc1	inconclusive [inhibitor, partial curve]
O=C(CCCc1nc2ccccc2s1)N1CCN(c2ccccc2)CC1	inconclusive [inhibitor, single point]
CCn1c(CNC(=O)c2ccco2)nnc1SCC(=O)Nc1cc(C(F)(F)F)ccc1Cl	inactive
CN(Cc1cccs1)C(=O)/C=C/c1ccccc1[N+](=O)[O-]	active: 3.16 µM
COc1ccc(Cc2nnc(NC(=O)Cc3cccs3)s2)cc1OC	inconclusive [inhibitor, single point]
C=CCc1cccc2cc(C(=O)NC3CCCCC3)c(=O)oc12	inconclusive [inhibitor, partial curve]
COc1ccccc1NC(=O)c1ccc(NC(=O)CSc2nnnn2C)cc1	active: 0.794 µM
COc1cc(C(=O)NCCCNc2nc3c(C)cc(C)cc3cc2C#N)cc(OC)c1OC	inconclusive [inhibitor, single point]
COCCNS(=O)(=O)c1ccc(-c2ccc(C)cc2)cc1	inconclusive [inhibitor, single point]
COc1ccc(OC2OC3COC(c4ccco4)OC3C(O)C2NC(C)=O)cc1 (configuration not stated)	inconclusive [inhibitor, single point]
S=c1[nH]c2ccccc2o1	inconclusive [inhibitor, single point]
Cc1ccc(CNC(=O)COc2ccc(C)nc2[N+](=O)[O-])cc1	inactive
CCCOc1ccccc1-c1nc2n[nH]nc2c(=O)[nH]1	inactive and active: 22.4 µM and active: 20 µM
Fc1ccccc1C1c2cccn2CCN1C(=S)Nc1ccc(Br)cc1 (configuration not stated)	active: 14.1 µM
CCn1cc(/C=N/NC(=O)COc2cccc3cccnc23)c2ccccc21	inconclusive [inhibitor, single point]
Cc1c(C(=O)NCc2ccc3c(c2)OCO3)sc2nc(-c3ccc(F)cc3)cn12	inactive
CCN(CC)c1ccc(NC(=O)CSc2nnc(N)s2)cc1C	inactive
CCOC(=O)N1CCC(=C(C#N)C(=O)Nc2cc(OC)ccc2OC)CC1	inconclusive [inhibitor, single point]
O=C(NCc1ccco1)C1CCCCC1	inactive
CCSCc1nnc(SCC(=O)Nc2ccc(F)cc2)n1CC	inconclusive [inhibitor, single point]
